# Assay results as given in patent US20230416360A1 (SIMCERE ZAIMING PHARMACEUTICAL, published 2023).
# T1: human CD22 (full length, on cells) (human, UniProt P20273 20-847)
# T1 construct: Raji cells carry endogenous human CD22; also called CHO-K1-human CD22 2C4; CHO-K1-human CD22 1G5
# T1 sequence: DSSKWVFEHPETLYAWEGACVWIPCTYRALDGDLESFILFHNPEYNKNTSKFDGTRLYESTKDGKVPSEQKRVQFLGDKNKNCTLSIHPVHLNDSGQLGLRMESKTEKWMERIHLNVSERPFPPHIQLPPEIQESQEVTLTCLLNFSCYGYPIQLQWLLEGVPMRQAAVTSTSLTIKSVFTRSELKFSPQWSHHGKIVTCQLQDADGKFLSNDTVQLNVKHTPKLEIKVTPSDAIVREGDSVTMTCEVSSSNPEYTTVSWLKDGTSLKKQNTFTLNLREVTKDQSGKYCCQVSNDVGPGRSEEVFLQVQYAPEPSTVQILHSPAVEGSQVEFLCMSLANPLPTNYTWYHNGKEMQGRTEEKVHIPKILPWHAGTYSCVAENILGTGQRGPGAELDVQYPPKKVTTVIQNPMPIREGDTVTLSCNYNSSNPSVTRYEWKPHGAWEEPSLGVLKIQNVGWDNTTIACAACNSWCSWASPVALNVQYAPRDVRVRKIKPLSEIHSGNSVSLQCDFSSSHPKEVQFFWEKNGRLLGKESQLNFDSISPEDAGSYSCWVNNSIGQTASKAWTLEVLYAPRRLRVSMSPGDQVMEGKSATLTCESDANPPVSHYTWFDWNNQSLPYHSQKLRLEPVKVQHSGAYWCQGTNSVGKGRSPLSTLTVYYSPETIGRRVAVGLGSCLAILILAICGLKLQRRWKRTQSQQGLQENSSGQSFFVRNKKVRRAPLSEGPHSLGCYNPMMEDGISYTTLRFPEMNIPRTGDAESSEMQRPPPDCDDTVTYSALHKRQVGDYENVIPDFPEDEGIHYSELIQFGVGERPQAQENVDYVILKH
# T2: murine CD22-ECD-His (mouse, UniProt P35329 22-708)
# T2 construct: extracellular domain; Bought; also called mouse CD22; murine CD22 protein
# T2 sequence (looked up): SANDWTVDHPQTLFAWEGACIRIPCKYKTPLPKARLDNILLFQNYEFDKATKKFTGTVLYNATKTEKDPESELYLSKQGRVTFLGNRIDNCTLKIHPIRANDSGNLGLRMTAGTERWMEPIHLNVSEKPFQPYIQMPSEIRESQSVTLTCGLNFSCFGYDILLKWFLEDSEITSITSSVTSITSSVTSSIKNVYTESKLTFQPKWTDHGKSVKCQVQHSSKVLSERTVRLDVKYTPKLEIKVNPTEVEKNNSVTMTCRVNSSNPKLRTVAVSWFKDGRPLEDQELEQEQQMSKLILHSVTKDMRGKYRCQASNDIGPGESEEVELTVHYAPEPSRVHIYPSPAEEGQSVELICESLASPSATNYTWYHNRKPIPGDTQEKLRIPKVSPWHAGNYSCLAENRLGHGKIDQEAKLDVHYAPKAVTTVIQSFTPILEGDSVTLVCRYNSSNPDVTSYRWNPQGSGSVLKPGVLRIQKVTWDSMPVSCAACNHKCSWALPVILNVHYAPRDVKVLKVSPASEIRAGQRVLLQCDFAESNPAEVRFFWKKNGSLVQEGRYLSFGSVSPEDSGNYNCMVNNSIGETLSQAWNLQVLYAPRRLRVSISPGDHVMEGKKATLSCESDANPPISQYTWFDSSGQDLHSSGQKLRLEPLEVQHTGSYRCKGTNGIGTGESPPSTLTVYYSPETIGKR
# B1: S002-NB151-36 VHH-Fc (Fc fusion)
# chain: QVQLVESGGGLVQAGGSLRLSCAASGLTFSYYGMGWFRQAPGKEREFVAAINWSGTSTYYADSVKDRFTVSRDNAKNTAYLHMNNLKPEDTAVYYCAARKYSSSQAMGLPNDIDYWGQGTQVTVSS[human IgG1 Fc with changes cut from this listing]
# notes: VHH cloned into vector BI3.4-huIgG1 (hinge and human IgG1 Fc), made in HEK293E; also called 5002-NB151-36
# B2: S002-NB150-152n VHH-Fc (Fc fusion)
# chain: EVQVVESGGGLVQTGGSLRLSCAASGRPFDWLTVGWFRQAPGKEREFVAAISQSGGRIFYSDSVKGRFTISRDNAKNTAFLQMNSLKPEDTAVYSCAAQMRGYSRAAYPDEYDYWGQGTQVTVSS[human IgG1 Fc with changes cut from this listing]
# notes: VHH cloned into vector BI3.4-huIgG1 (hinge and human IgG1 Fc), made in HEK293E
# B3: S002-NB150-5 VHH-Fc (Fc fusion)
# chain: QLQLVESGGGLVQAGGSLRLSCVGSGDRVSIALMGWFRQAPGKEREFVAAISPSGGRITYSDSVKGRFTISRDNAKNTVYLQMNSLKRDDTAVYVCAANFRGYLSSSRGSDYAYWGQGTQVTVSS[human IgG1 Fc with changes cut from this listing]
# notes: VHH cloned into vector BI3.4-huIgG1 (hinge and human IgG1 Fc), made in HEK293E; also called 5002-NB150-5
# B4: S002-NB151-14 VHH-Fc (Fc fusion)
# chain: QVQLVESGGGLVQAGGSLRLSCTTSGGTLSRITMGWFRQAPGKEREFVAAIKWGGSSTPYSDSVKGRFTISRDNAKNTVYLQMDRLVPEDTAVYYCAGGLRGPYSDSVTSSVQYNYWGQGTQVTVSS[human IgG1 Fc with changes cut from this listing]
# notes: VHH cloned into vector BI3.4-huIgG1 (hinge and human IgG1 Fc), made in HEK293E; also called 5002-NB151-14
# B5: S002-NB150-40 VHH-Fc (Fc fusion)
# chain: QVQLVESGGGLVQDGGSLRLSCAASGLTFSFYNMGWFRQAPGKEREFVAAISQSGLSTHYADSMKGRFTISRDNAKNTVYLQMNSLNPVDTAAYYCAAGRRGYLASTTNDYEYWGQGTQVTVSS[human IgG1 Fc with changes cut from this listing]
# notes: VHH cloned into vector BI3.4-huIgG1 (hinge and human IgG1 Fc), made in HEK293E; also called 5002-NB150-40
# B6: S002-NB151-64 VHH-Fc (Fc fusion)
# chain: QVQLVESGGGLVQPGGSLTLSCAASGFDFSFYTMTWVRQAQGKGLEWVSTISTGGGGSNYADSVKGRFTISRDNAKKTLYLQMTSLKPEDTAVYYCASHRRGYMFVSSRKNEYDYWGRGTQVTVSS[human IgG1 Fc with changes cut from this listing]
# notes: VHH cloned into vector BI3.4-huIgG1 (hinge and human IgG1 Fc), made in HEK293E; also called 5002-NB151-64
# B7: S002-NB150-42 VHH-Fc (Fc fusion)
# chain: QVQLVESGGGLVQAGDSLKLSCLASGITFSSYYMSWFRQAPGKEREFVAGVGRSGAPSHHADSVKGRFTISRDNAKSAVYLQMNSLQPEDTAVYFCAAKWMAASTTVADYWGQGTQVTVSS[human IgG1 Fc with changes cut from this listing]
# notes: VHH cloned into vector BI3.4-huIgG1 (hinge and human IgG1 Fc), made in HEK293E; also called 5002-NB150-42
# B8: S002-NB150-57 VHH-Fc (Fc fusion)
# chain: QVQLVESGGGLVQAGDSLRLSCAVTGRAYSRSDMGWFRQAPGKEREIVAVITFGGGTDYADSVKGRFTISSEDTKNTLYLQMNSLQPEDTAVYYCAAGFRGSRWSTAARRKEDDYAFWGQGTQVTVSS[human IgG1 Fc with changes cut from this listing]
# notes: VHH cloned into vector BI3.4-huIgG1 (hinge and human IgG1 Fc), made in HEK293E; also called 5002-NB150-57
# Biological target: T1, human CD22 (full length, on cells)
# Assay: FACS, Raji cells
# Excerpt: (§1) The required cells were scale-up cultured in a T-75 cell culture flask to the logarithmic growth phase. For the adherent cell CHO-K1, the medium was aspirated, the cells were washed 2 times with PBS buffer, and then digested with trypsin. After the digestion was terminated, the cells were washed 2 times with PBS buffer. For suspension cell Raji, the medium supernatant was directly centrifuged and discarded, and the cell pellet was washed 2 times with PBS. […] The mixture was centrifuged and washed 3 times with PBS buffer, Alexa Flour 488-labeled secondary antibody (purchased from Invitrogen, catalog number: A-11013) was added at 50 μl/well, and incubated on ice for 1 hour. The obtained mixture was centrifuged and washed 5 times with PBS, and FACS (FACS Canto™, purchased from BD Company) was used for detection and result analysis. Data analysis was performed by software (CellQuest) to obtain the mean fluorescence density (MFI) of the cells. And then software (GraphPad Prism8) was used for analysis, data fitting, and EC50 value calculation.
EC50 [nM],Max MFI,Binder
0.41,4760,B1
0.12,2110,B2
0.17,4620,B3
1.03,2370,B4
0.36,4070,B5
0.26,4690,B6
0.2,4460,B7
0.17,4660,B8

# Biological target: T2, murine CD22-ECD-His
# Assay: ELISA, coated mouse CD22, antibody 0.01 nM
# Experimental: The plate was sealed with plastic film and incubated overnight at 4° C., the plate was washed 2 times with PBS the next day, and then a blocking solution [PBS+2% (w/w) BSA] was added for blocking at room temperature for 2 hours. […] After incubation at 37° C. for 2 hours, the plate was washed 3 times with PBS. HRP (horseradish peroxidase)-labeled secondary antibody (purchased from Sigma, catalog number: A0170) was added, and incubated at 37° C. for 2 hours, and the plate was washed 5 times with PBS. TMB substrate was added at 50 μl/well, and incubated at room temperature for 30 minutes, then a stop solution (1.0 N HCl) was added at 50 μl/well.
row,OD450,Binder
1,0.05,B1
2,0.07,B2
3,0.05,B3
4,0.06,B4
5,0.05,B5
6,0.08,B6
7,0.05,B7
8,0.05,B8

# Biological target: T3, cynomolgus monkey CD22 on peripheral blood B cells (cynomolgus monkey (Macaca fascicularis))
# T3 construct: whole, on cells; also called cynomolgus monkey B cells
# Assay: FACS, cynomolgus PBMC, CD20+ B cells, antibody 1 nM
# Experimental: After the cell suspension was centrifuged, the cells were resuspended in PBS containing 1% BSA, and then the cells were counted. […] After washing the cells three times, APC-labeled secondary antibody anti-human IgG Fc (catalog number: 409306, purchased from Biolegend) was added. After incubation at room temperature in the dark for 30 minutes, the cells were washed 5 times, gently resuspended with PBS containing 1% BSA, and detected and analyzed by FACS (FACS Canto™, purchased from BD Company).
row,Proportion of VHH-Fc antibody positive cells to B cells (%),Binder
1,5,B1
2,0,B2
3,3,B3
4,84,B4
5,3,B5
6,3,B6
7,3,B7
8,3,B8

# Biological target: T1, human CD22 (full length, on cells)
# Assay: FACS, CHO-K1-human CD22 2C4 cells
# Excerpt: as §1
EC50 [nM],Max MFI,Binder
1.37,22300,B1
1.04,10600,B2
0.71,25700,B3
3.7,11100,B4
1.44,22500,B5
0.66,24500,B6
0.73,24400,B7
0.76,26700,B8
